Reference: the supplement of paper PMC11417369
± gives the standard deviation of the averaged measurements. The list shows a part of the results.

Each sequence was assayed on PfAP2-LT AP2 domain (GST-tagged) (assay: gcPBM binding intensity (ln(normalized median fluorescence intensity)); higher = stronger DNA binding).
Procedure, shortened: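 GST-fused DNA-binding domains of P. falciparum, expressed in E. coli, were applied at about 25 μg on average for 1 h to an Agilent 4 × 180k array of primer-extended double-stranded 36-bp intergenic genomic probes and negative controls. Binding intensity is the highest Masliner-normalised natural-log median intensity across replicate spots of either probe orientation, measured with Alexa488 anti-GST antibody and a 488 nm scan.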

Point of comparison: “ATACATACATATGTATGTACGTATGTATGTATGTAT [XGTACX_site3853]”, “gcPBM binding intensity (ln)” value 9.16 ± 0.32. Against it:
- TTTGAGATAAAAGACTGTACTTAGAATGTATAAAAA [XGTACX_site203] — within error, 8.48 ± 0.6
- AAAAAAAAAAAAAACTGTACCAAAAAGAATATATAC [XGTACX_site8345] — within error, 8.82 ± 0.43
- ATATATATATATATATGTACATAAATATTTTAAAAT [XGTACX_site4980] — within error, 9.21 ± 0.2
- TTTAATTTTATATAGAGTACAAAAAAATAGAAAGAT [XGTACX_site3870] — within error, 8.69 ± 0.41
- AATATATGTTTAATTTCACACACAAATATACATTTT [CACACA_site9385] — within error, 9.23 ± 0.45
- ATATATATATATATATGTACACATATACGCTTTTTC [XGTACX_site3838] — within error, 9.71 ± 0.57
- TACTCCTTAAATATATGTAAAGGAAGAAAAAAAAAA [XGTACX_negctrl_site306] — within error, 8.4 ± 0.51
- TTGTTTCTACAATTTAATAAAATACGTTTTCAAAAA [XGTACX_negctrl_site377] — lower, 8.03 ± 0.42
- ACAATAAAAATAAAAAGTACAAATAAAAAAAATAAA [XGTACX_site6718] — within error, 8.85 ± 0.52
- TATAATAATACGTATTGTACTATTAGGTTAATTCGT [XGTACX_site264] — within error, 8.78 ± 0.36
- TTTTCTTGTAAATTACGTACGAATGTGTAGAGAAAT [XGTACX_site1339] — within error, 8.63 ± 0.45
- ACTTGTAAGAAACACACACACACACCCATATATATA [CACACA_site796] — higher, 10.2 ± 0.16
- TCTATAAAGGAATATACACACATATATATATATATA [CACACA_site410] — higher, 9.79 ± 0.21
- AAGTAAAATAAGTATACACACATAAATATATATATA [CACACA_site685] — within error, 9.22 ± 0.4
- TAAAATATAAAACACACACACATATATATATATATT [CACACA_site224] — higher, 9.72 ± 0.11
- ATCCTCTTTACAATATGTACATAAATATATATTTAT [XGTACX_site8001] — within error, 9.17 ± 0.49
- TATTTATTTATTTATTTATTTATTTATTTATATTTA [CACACA_negctrl_site398] — within error, 8.44 ± 0.52
- TATATATTTTTATTATGTACATATTAACAATGTGTT [XGTACX_site879] — within error, 8.81 ± 0.41
- TATATATATAAATACACACACATATATATATATATA [CACACA_site4867] — higher, 9.74 ± 0.085
- TATATACTCATGCGCACACACAAGTGGGAAATTTGG [CACACA_site5056] — within error, 9.47 ± 0.43
- TTCTTTAAAAAATTCGATAAAAAAAAAAAAAGAAAA [CACACA_negctrl_site242] — lower, 8.04 ± 0.45
- ATATATTATAGGTACACACACATATAAGGGATTATA [CACACA_site6154] — within error, 9.35 ± 0.42
- ATATATATATATATTGTGCACAAAAAAAAATAAGCA — within error, 9.09 ± 0.4
- ATATACATATATATTGCATGCAGAGAGTATTTATAA [TGCATGCA_site646] — within error, 8.91 ± 0.35
- GGAAAGACAGTTCACAGTACCCAGGAAATCTACGGA [XGTACX_site1996] — within error, 9.04 ± 0.51
- CTTTGTAGTATATTAACACACAACTGTTTATAATAT [CACACA_site6038] — within error, 8.9 ± 0.43
- TATATATATATTTAGTGTACTTAAAAAAAATAATAA [XGTACX_site5454] — lower, 8.37 ± 0.45
- ATAATAATAAAATATATATACAAAGGTGAAATTATA [TGCATGCA_negctrl_site197] — within error, 8.8 ± 0.45
- TATTTTTTTTTCCATTGTACATTTTTGATATTTTTC [XGTACX_site744] — within error, 8.91 ± 0.52
- TTATTAAATATGTACACACGTACATTTTATAAATGA [CACACA_site2387] — within error, 8.57 ± 0.35
- TATAAATACTAAAAAAGTACAAAATTTCATAAAAAA [XGTACX_site2709] — within error, 8.55 ± 0.58
- ATTTTATATAATACATGTACAAAAGTTTAAATTTAT [XGTACX_site6196] — within error, 8.62 ± 0.42
- GGAAAATCTAATCATTTAATATTTATTTATCTAATT [GTGCAC_negctrl_site553] — within error, 8.35 ± 0.52
- TTATAATATAGCAATTATTAAATAGGATCAAATGAA [CACACA_negctrl_site632] — lower, 8.41 ± 0.38
- TTCTTTATTTATCATTATAAGAAGAGTTGATTTGTT [XGTACX_negctrl_site555] — within error, 8.61 ± 0.47
- AACAAATTTATCCAAAGTACAAAATATCATTTCTTA [XGTACX_site4543] — within error, 8.52 ± 0.46
- AACAACATGTAGACGCGTACCAACATCAGATCCTAT [XGTACX_site4071] — within error, 9.37 ± 0.38
- ATTATAATTATATATGCATGTAGCATTTTCTATTTT [TGCATGCA_site66] — within error, 8.86 ± 0.4
- ATATAAGAAATAAAGAAAAATGTGTTTTTTTTTTTT [XGTACX_negctrl_site396] — within error, 8.38 ± 0.59
- TTTATCTTATTTTTATGTACTTATTTTATAAAAAAA [XGTACX_site7730] — lower, 8.23 ± 0.52
- AGAGCTGTTTTTTATGCATGTAGTTTAGAAAATACA [TGCATGCA_site257] — within error, 8.51 ± 0.39
- AAACAAATATTTATCACAATGTCATTTTGTTAACAT [GTGCAC_negctrl_site171] — within error, 8.8 ± 0.35
- TTTTTCCTAACATATTATATACTTGAATATTTATTA [CACACA_negctrl_site156] — within error, 8.5 ± 0.55
- TATTTGTAAATTATTTGGGTGTGTAGGGGATATTCT [XGTACX_negctrl_site204] — within error, 9.29 ± 0.42
- TTTTTTTTTTTATTTGCATGCGGTGTTCATAATATT [TGCATGCA_site199] — within error, 9 ± 0.37
- CGTTCATATTATTATAGTACATATTATTATAGTTTT [XGTACX_site1550] — within error, 8.76 ± 0.4
- AGAAGAAAAGTAAAAAGTACATTATTCATGGCCTAT [XGTACX_site5601] — within error, 8.7 ± 0.43
- TTGGTGGATAAATTTACACACAATAACTTTCGTTCA [CACACA_site6358] — within error, 8.94 ± 0.45
- AAGAAAATAAATAATACACACAAGGATTTGTAAATA [CACACA_site690] — within error, 9.04 ± 0.45
- CTTTTTTTTTAAAAATGTACACATTTTTGAAAATAC [XGTACX_site3127] — lower, 8.33 ± 0.47
- TTTTTCTTTTTTTTTTCCTTTATCACATAAGAAAAA [CACACA_negctrl_site192] — lower, 8.18 ± 0.45
- AAAATGAAGAAGTGCACACATATATATATTTATATA [CACACA_site507] — within error, 9.21 ± 0.39
- AAGATATGAGGGAATACACACATATATATATATATA [CACACA_site1581] — higher, 9.97 ± 0.13
- TTAATACACCATAAAAGTACATAATATGATATTTAA [XGTACX_site8561] — within error, 8.63 ± 0.42
- ATATGTTTGATTTTTTTTTTTTTTTTTTTTATGTGT [CACACA_negctrl_site1001] — within error, 8.88 ± 0.63
- AAAAAAAAAATTAAAAGTACAGAAAATAAATAAATA [XGTACX_site7470] — within error, 8.67 ± 0.48
- GACATATTATTCATGTGTACATATTATATGTATATA [XGTACX_site3442] — within error, 8.91 ± 0.4
- AAAAAAGAAGACATCTAAGTAATAGTAACAATGTAT [CACACA_negctrl_site1660] — within error, 8.93 ± 0.51
- AAGAATTTAGAAGGCATGCACTTAAACATGCATATA — within error, 8.79 ± 0.5
- TATAAATATACACCCACACACATATATAAATAAATA [CACACA_site7717] — higher, 9.65 ± 0.16
- TATATGGGATATATGTGTACATATAAAATATGTATC [XGTACX_site3365] — within error, 8.87 ± 0.43
- TTTTTTTTTTTTTTTACACACATTTGAATAACTTTA [CACACA_site6810] — within error, 8.73 ± 0.48
- AAAAGAATTAAAAAATGTACATATAATATATATATA [XGTACX_site6721] — within error, 8.86 ± 0.38
- CTTAATATGAATAAAACACACATATATAATTTGTAA [CACACA_site5120] — within error, 8.7 ± 0.43
- TTTTCCCTTACAGAAAAAAAAAAATTCCTAACCCCG [CACACA_negctrl_site650] — lower, 8.46 ± 0.12
- ATATATTTTAGGAGAGTGCATTTAATATTATTTAAT [GTGCAC_site9444] — lower, 8.44 ± 0.4
- TTATATATTTATAATCGTACAATAATTAACGTAAAA [XGTACX_site3206] — lower, 8.42 ± 0.4
- CATATAATAAATAATACACACATATTGTAAATATAT [CACACA_site5734] — within error, 9.07 ± 0.46
- GTAATGAACAAACACAAAAAAAAAAAAAAAATAATA [TGCATGCA_negctrl_site344] — within error, 8.74 ± 0.45
- TAAAATAAAATAAAATGTACTTTCCTTTTGATAATA [XGTACX_site6288] — lower, 8.22 ± 0.54
- AATTGAGTATCGTGAGTGCAAAACGTGGTTCAAAGA — within error, 8.99 ± 0.51
- ATTTGAAAAAATACTACACACCATATTGTTAATTTT [CACACA_site3829] — within error, 8.79 ± 0.38
- AAGATTCATATAAAAAGTACAAAAAGAAAAAAATAA [XGTACX_site6033] — within error, 8.67 ± 0.47
- TGATAAATTTTCACATGTACATATATAGAATAACCT [XGTACX_site2860] — within error, 8.79 ± 0.26
- ATTAAATCATATGAATGTACGGATATATATATTTCC [XGTACX_site8650] — within error, 8.86 ± 0.42
- ATATATATGTATATATGTACATATATGTATATATAT [XGTACX_site4772] — within error, 9.12 ± 0.57
- ATAATTTTATATAAATGTACATACATTTTTATTATA [XGTACX_site7368] — within error, 8.61 ± 0.4
- ATAATATATGCAAAAACATGCACATAATATGTAAAA [TGCATGCA_site742] — within error, 8.93 ± 0.44
- TATACACATAGACACACACACATACACGCACATACA [CACACA_site6908] — higher, 9.99 ± 0.17
- TAATAAGTATCAAAATGTACATGACAAAAATAATTT [XGTACX_site8961] — within error, 8.89 ± 0.38
- TCTAAAAAAATTATATCACACATTATAAAGCATATT [CACACA_site4885] — lower, 8.48 ± 0.31
- ATTTGTATATAATATATATAATTTTTTTTTTTTGTT [XGTACX_negctrl_site425] — within error, 8.45 ± 0.56
- ATAACTATATACATCTGTACATAATACATAGATAAA [XGTACX_site2795] — within error, 8.86 ± 0.42
- ATATCTTCACTTATATGTACTTACATTTTTTTTTTT [XGTACX_site8696] — within error, 8.96 ± 0.5
- CAAATAAAAAAAGTAGCACACATGAATAAAATATAT [CACACA_site3130] — the same, 9.16 ± 0.42
- TTATAAAAAGAACAATTAAAAAAAAATAAAATAAAA [XGTACX_negctrl_site398] — within error, 8.4 ± 0.63
- AGAATAGTGGAAAACACACACGTTTGAGATATGGAC [CACACA_site4782] — within error, 9.41 ± 0.45
